Test results: patent US20230312684A1 (PINETREE THERAPEUTICS, published 2023)

B1: SEQ ID NO: 135, b1b1-Fc (NRP1, WT) (Fc fusion)
chain: EDFKCMEALGMESGEIHSDQITASSQYSTNWSAERSRLNYPENGWTPGEDSYREWIQVDLGLLRFVTAVGTQGAISKETKKKYYVKTYKIDVSSNGEDWITIKEGNKPVLFQGNTNPTDVVVAVFPKPLITRFVRIKPATWETGISMRFEVYGCGGGGSGGGGSGGGGSGGGGSCMEALGMESGEIHSDQITASSQYSTNWSAERSRLNYPENGWTPGEDSYREWIQVDLGLLRFVTAVGTQGAISKETKKKYYVKTYKIDVSSNGEDWITIKEGNKPVLFQGNTNPTDVVVAVFPKPLITRFVRIKPATWETGISMRFEVYGCGGGGSGGGGSGGGGSGGGGS[human IgG1 Fc left out]
B2: SEQ ID NO: 115, b1b1-Fc (NRP1, K373E, double b1) (Fc fusion)
chain: EDFKCMEALGMESGEIHSDQITASSQYSTNWSAERSRLNYPENGWTPGEDSYREWIQVDLGLLRFVTAVGTQGAISKETKKKYYVKTYKIDVSSNGEDWITIEEGNKPVLFQGNTNPTDVVVAVFPKPLITRFVRIKPATWETGISMRFEVYGCGGGGSGGGGSGGGGSGGGGSCMEALGMESGEIHSDQITASSQYSTNWSAERSRLNYPENGWTPGEDSYREWIQVDLGLLRFVTAVGTQGAISKETKKKYYVKTYKIDVSSNGEDWITIEEGNKPVLFQGNTNPTDVVVAVFPKPLITRFVRIKPATWETGISMRFEVYGCGGGGSGGGGSGGGGSGGGGS[human IgG1 Fc left out]
B3: SEQ ID NO: 136, b1b1b1-Fc (NRP1, WT) (Fc fusion)
chain: EDFKCMEALGMESGEIHSDQITASSQYSTNWSAERSRLNYPENGWTPGEDSYREWIQVDLGLLRFVTAVGTQGAISKETKKKYYVKTYKIDVSSNGEDWITIKEGNKPVLFQGNTNPTDVVVAVFPKPLITRFVRIKPATWETGISMRFEVYGCGGGGSGGGGSGGGGSGGGGSCMEALGMESGEIHSDQITASSQYSTNWSAERSRLNYPENGWTPGEDSYREWIQVDLGLLRFVTAVGTQGAISKETKKKYYVKTYKIDVSSNGEDWITIKEGNKPVLFQGNTNPTDVVVAVFPKPLITRFVRIKPATWETGISMRFEVYGCGGGGSGGGGSGGGGSGGGGSCMEALGMESGEIHSDQITASSQYSTNWSAERSRLNYPENGWTPGEDSYREWIQVDLGLLRFVTAVGTQGAISKETKKKYYVKTYKIDVSSNGEDWITIKEGNKPVLFQGNTNPTDVVVAVFPKPLITRFVRIKPATWETGISMRFEVYGCGGGGSGGGGSGGGGSGGGGS[human IgG1 Fc left out]
B4: SEQ ID NO: 116, b1b1b1-Fc (NRP1, K373E, triple b1) (Fc fusion)
chain: EDFKCMEALGMESGEIHSDQITASSQYSTNWSAERSRLNYPENGWTPGEDSYREWIQVDLGLLRFVTAVGTQGAISKETKKKYYVKTYKIDVSSNGEDWITIEEGNKPVLFQGNTNPTDVVVAVFPKPLITRFVRIKPATWETGISMRFEVYGCGGGGSGGGGSGGGGSGGGGSCMEALGMESGEIHSDQITASSQYSTNWSAERSRLNYPENGWTPGEDSYREWIQVDLGLLRFVTAVGTQGAISKETKKKYYVKTYKIDVSSNGEDWITIEEGNKPVLFQGNTNPTDVVVAVFPKPLITRFVRIKPATWETGISMRFEVYGCGGGGSGGGGSGGGGSGGGGSCMEALGMESGEIHSDQITASSQYSTNWSAERSRLNYPENGWTPGEDSYREWIQVDLGLLRFVTAVGTQGAISKETKKKYYVKTYKIDVSSNGEDWITIEEGNKPVLFQGNTNPTDVVVAVFPKPLITRFVRIKPATWETGISMRFEVYGCGGGGSGGGGSGGGGSGGGGS[human IgG1 Fc left out]
B5: SEQ ID NO: 137, b1-Fc-b1 (NRP1, WT) (Fc fusion)
chain: EDFKCMEALGMESGEIHSDQITASSQYSTNWSAERSRLNYPENGWTPGEDSYREWIQVDLGLLRFVTAVGTQGAISKETKKKYYVKTYKIDVSSNGEDWITIKEGNKPVLFQGNTNPTDVVVAVFPKPLITRFVRIKPATWETGISMRFEVYGCGGGGSGGGGSGGGGSGGGGS[human IgG1 Fc left out]GGGGSGGGGSGGGGSGGGGSCMEALGMESGEIHSDQITASSQYSTNWSAERSRLNYPENGWTPGEDSYREWIQVDLGLLRFVTAVGTQGAISKETKKKYYVKTYKIDVSSNGEDWITIKEGNKPVLFQGNTNPTDVVVAVFPKPLITRFVRIKPATWETGISMRFEVYGCEVEA
B6: SEQ ID NO: 133, b1-Fc-b1 (NRP1, K373E) (Fc fusion)
chain: EDFKCMEALGMESGEIHSDQITASSQYSTNWSAERSRLNYPENGWTPGEDSYREWIQVDLGLLRFVTAVGTQGAISKETKKKYYVKTYKIDVSSNGEDWITIEEGNKPVLFQGNTNPTDVVVAVFPKPLITRFVRIKPATWETGISMRFEVYGCGGGGSGGGGSGGGGSGGGGS[human IgG1 Fc left out]GGGGSGGGGSGGGGSGGGGSCMEALGMESGEIHSDQITASSQYSTNWSAERSRLNYPENGWTPGEDSYREWIQVDLGLLRFVTAVGTQGAISKETKKKYYVKTYKIDVSSNGEDWITIEEGNKPVLFQGNTNPTDVVVAVFPKPLITRFVRIKPATWETGISMRFEVYGCEVEA
B7: SEQ ID NO: 122, b1b2-Fc (NRP1, WT, single b1b2) (Fc fusion)
chain: EDFKCMEALGMESGEIHSDQITASSQYSTNWSAERSRLNYPENGWTPGEDSYREWIQVDLGLLRFVTAVGTQGAISKETKKKYYVKTYKIDVSSNGEDWITIKEGNKPVLFQGNTNPTDVVVAVFPKPLITRFVRIKPATWETGISMRFEVYGCKITDYPCSGMLGMVSGLISDSQITSSNQGDRNWMPENIRLVTSRSGWALPPAPHSYINEWLQIDLGEEKIVRGIIIQGGKHRENKVFMRKFKIGYSNNGSDWKMIMDDSKRKAKSFEGNNNYDTPELRTFPALSTRFIRIYPERATHGGLGLRMELLGCGGGGSGGGGS[human IgG1 Fc left out]
B8: SEQ ID NO: 114, b1-Fc (NRP1, K373E, single b1) (Fc fusion)
chain: EDFKCMEALGMESGEIHSDQITASSQYSTNWSAERSRLNYPENGWTPGEDSYREWIQVDLGLLRFVTAVGTQGAISKETKKKYYVKTYKIDVSSNGEDWITIEEGNKPVLFQGNTNPTDVVVAVFPKPLITRFVRIKPATWETGISMRFEVYGCGGGGSGGGGSGGGGSGGGGS[human IgG1 Fc left out]

Biological target: T1, Recombinant RSV F protein (Octet assays of Examples 14 and 16) (respiratory syncytial virus)
Assay: not given

Question: How did the Kd turn out when B1 was run?
Answer: The Kd was less than 1 nM.

Question: For B2, which Kd is on record?
Answer: The Kd was less than 1 nM.

Question: With B3 as the binder, how does the Kd read?
Answer: Its Kd is less than 1 nM.

Question: B4 was tested. Which Kd did it give?
Answer: The Kd was less than 1 nM.

Question: B5 was tested. Which Kd did it give?
Answer: Its Kd is less than 1 nM.

Question: How did the Kd turn out when B6 was run?
Answer: Its Kd is less than 1 nM.

Question: For B7, which Kd is on record?
Answer: The Kd was less than 1 nM.

Biological target: T1, Recombinant RSV F protein (Octet assays …)
Assay: BLI (Octet Red 96), RSV F glycoprotein

Question: Does B8 bind?
Answer: Result: no binding
